Measured values taken from PubChem BioAssay AID1159614 (National Center for Advancing Translational Sciences (NCATS), 2016).
The whole screen tested about 45,000 compounds, of which about 65 (0.1%) were called active. Calls follow the shape of the dose curve; as a rule, active = well fitted activation curve with a large enough effect; inconclusive = small, poorly fitted or top-dose-only effect; inactive = no such curve, though single readings can be large or run the other way. This is one part of the list.

These compounds were tested against Galactocerebrosidase (Homo sapiens) (UniProt P54803) (assay: A Novel Cell-Based Assay to Identify Small Molecules for B -Galactocerebrosidase). Conditions: 145M-Twi-hGALC-G270D cells (Twitcher mouse brain line with human GALC G270D), HMU-beta-Gal fluorescence, 48 h; series mostly up to 57.5 µM; activation: at the top concentration.
UniProt P54803, sequence (P54803 whole entry, looked up): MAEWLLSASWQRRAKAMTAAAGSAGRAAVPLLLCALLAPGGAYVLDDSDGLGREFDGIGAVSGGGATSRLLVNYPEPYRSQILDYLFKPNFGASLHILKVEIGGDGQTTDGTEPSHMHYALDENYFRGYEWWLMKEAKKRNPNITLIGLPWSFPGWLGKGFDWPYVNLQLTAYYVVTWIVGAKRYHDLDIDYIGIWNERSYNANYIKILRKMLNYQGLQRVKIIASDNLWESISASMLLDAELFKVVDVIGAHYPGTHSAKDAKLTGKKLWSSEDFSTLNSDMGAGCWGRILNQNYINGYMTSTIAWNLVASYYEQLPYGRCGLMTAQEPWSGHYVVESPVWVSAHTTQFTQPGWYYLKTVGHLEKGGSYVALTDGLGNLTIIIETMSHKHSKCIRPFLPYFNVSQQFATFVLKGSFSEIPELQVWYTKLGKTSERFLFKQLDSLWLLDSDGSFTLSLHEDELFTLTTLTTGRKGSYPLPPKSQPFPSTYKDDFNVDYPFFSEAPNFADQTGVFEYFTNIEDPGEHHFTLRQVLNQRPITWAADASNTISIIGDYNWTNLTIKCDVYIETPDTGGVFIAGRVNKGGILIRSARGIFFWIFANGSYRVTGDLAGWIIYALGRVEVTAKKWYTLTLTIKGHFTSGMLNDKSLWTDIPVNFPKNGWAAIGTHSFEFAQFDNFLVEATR
In short: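 Mutant human GALC (G270D), stably expressed in a Twitcher mouse brain cell line lacking endogenous GALC, is measured in live-treated cells via 6-hexadecanoylamino-4-methylumbelliferyl-β-galactoside hydrolysis (0.1 mM final, pH 5.2) with fluorescent detection.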
Also: 0% is about no effect; nearly all actives have a fitted effect of over 65% in size.

activation, inactive:
COc1cc(NC(=O)C(CCS(C)(=O)=O)N2Cc3ccccc3C2=O)cc(OC)c1OC (centres undefined) -13.2%
COc1cccc(C2CC(=O)N3CN(C4CCCCC4)CSC3=C2C#N)c1 (centres undefined) -11.4%
CC1CN(C(=O)N2CCC(C(=O)NC3CCCCCC3)CC2)c2ccccc2O1 (centres undefined) -14.9%
CCCN1C(=O)c2[nH]nc(-c3ccc(F)cc3)c2C1c1ccccn1 (centres undefined) -15.1%
CN(C)c1ccc(NC(=O)CSC2=Nc3ccccc3C3=NC(CC(=O)NCc4ccccc4)C(=O)N23)cc1 (centres undefined) -15.8%
CCOc1ccccc1CN(CCc1ccc2c(c1)OCO2)Cc1cccc(OC)c1OC -26.4%
CCOC(=O)c1c(C)[nH]c(CCC(=O)NCc2ccccc2C)c1C -12%
CCN1CCC(N(Cc2ccc3c(c2)OCO3)C(=O)Nc2ccccc2OC)CC1 -11.1%
Cc1ccc(C)c(NC(=O)CCCn2c(C)c3cnn(-c4ccccc4)c(=O)c3c2C)c1 8.71%
CCc1ccc(NC(=O)CSc2nc(C)c(C(=O)Nc3ccc(Cl)cc3)c(-c3ccc(OC)cc3)c2C#N)cc1 -11.2%
Cc1cc(C)c2c(n1)SCC(=O)N2CC(=O)Nc1ccccc1C -6.8%
CNC(=O)C1CCC(Cn2c(=O)c3sccc3n(CC(=O)NCc3ccc(C)cc3)c2=O)CC1 (centres undefined) -6.39%
COc1ccc(NC(=O)Cn2c(=O)oc3cc(Cl)ccc32)c(OC)c1 -11.6%
Cn1c(=O)oc2cc(S(=O)(=O)N3CCCC(C(=O)NCc4ccccc4Cl)C3)ccc21 (centres undefined) -11.2%
O=C(CSc1nc2c([nH]c3ccccc32)c(=O)n1-c1ccccc1)N1CCCc2ccccc21 -7.98%
Cc1ccccc1C(=O)Nc1sc2c(c1C(=O)O)CCC(C(C)(C)C)C2 (centres undefined) -20.7%
O=C(CSc1nc2c([nH]c3ccccc32)c(=O)n1-c1ccc(F)cc1)NCC1CCCO1 (centres undefined) -14.3%
CC1=C(c2ccc(F)cc2)S(=O)(=O)N=C1N1CCC(C(=O)NCCc2ccccc2)CC1 -10.5%
Cc1nc(N2CCCC2)ncc1C(=O)NCc1ccc(Cl)cc1 -9.13%
CC(C)c1ccc(Cc2cn3cc(-c4cc5ccccc5oc4=O)nc3s2)cc1 -11.8%
COc1cccc(-n2c(SCC(=O)Nc3cccc(C)c3)nc3c([nH]c4ccccc43)c2=O)c1 -29.2%
Cc1ccc(NC(=O)NCCOCCn2c(=O)oc3ccccc32)c(C)c1 -10.9%
COc1ccccc1N1CCN(S(=O)(=O)c2ccc(-c3ccno3)cc2OC)CC1 0.202%
O=C(NCc1ccc(Cl)cc1)c1cc2ccc3cccnc3c2[nH]1 -12.3%
Cc1cccc(NC(=O)c2cc(CN3CCOCC3)on2)c1C -5.5%
Cc1cccc(S(=O)(=O)c2cn(C)c3cc(N4CCCCCC4)c(F)cc3c2=O)c1 -15.5%
O=C(CSc1ccccc1)N1CCc2c([nH]c3ccccc23)C1c1ccc(Cl)cc1 (centres undefined) -41.3%
COc1cccc(C(=O)c2cn(CC(=O)Nc3cc(Cl)c(OC)cc3OC)c3nc(C)ccc3c2=O)c1 3.86%
COc1ccc(NC(=O)Cn2nc3c(cc2=O)CCCC3)cc1Cl 9.2%
CCCCc1nn2c(=O)cc(CN(CC)c3ccccc3)nc2s1 3.43%
CC(C)(C)c1ccc(C(=O)NNc2ncnc3c2cnn3-c2ccc(Cl)cc2)cc1 -18.6%
Cc1cccc(C)c1NC(=O)NCCCN1CCN(c2ccccc2)CC1 -9%
COc1cc(CN(C(=O)COc2ccc(Cl)cc2)c2ccccn2)cc(OC)c1OC -33.8%
Cc1ccc(C)c(NC(=O)C2CCN(c3ncnc4c3nc3n4CCCCC3)CC2)c1 -6.89%
COc1ccc(OC)c(C2=NS(=O)(=O)N(C)C(C(=O)Nc3ccc(C(C)=O)cc3)=C2)c1 -4.12%
O=C(CN1C(=O)C2(SCC(=O)N2c2ccccc2)c2ccccc21)Nc1ccccc1C(F)(F)F (centres undefined) -25%
CCOc1ccc(NC(=O)Cn2cc(S(=O)(=O)c3ccc(C)cc3)c(=O)c3cc(F)ccc32)cc1 -3.47%
CC(=O)c1nn(-c2ccc(OC(F)(F)F)cc2)nc1Nc1ccc(Cl)cc1 -8.36%
CCc1ccccc1NC(=O)CC(C)S(=O)(=O)c1ccc2c(c1)NC(=O)CO2 (centres undefined) -8.46%
O=C(CSc1nc2c([nH]c3ccccc32)c(=O)n1-c1ccccc1)NCc1ccc(F)cc1 -10%
CCNC(=O)C1CCN(c2nc3ccccc3nc2C(F)(F)F)CC1 -12.9%
CCc1ccc2occ(CC(=O)Nc3nnc(C)s3)c2c1 -26.1%
Cc1ccc(CN2C(=O)C(O)(CC(=O)c3ccc(C)cc3)c3ccccc32)cc1 (centres undefined) -20.9%
CCOC(=O)C1CCCN(C(=O)Cn2c(=O)cc(C)c3c(C)nn(C)c32)C1 (centres undefined) -3.9%
COc1ccc(S(=O)(=O)N2CCC(C(=O)NC(C)c3ccccc3)CC2)cc1 (centres undefined) 8.11%
COc1ccc(C(=O)c2cnc3ccc(C)cc3c2S(=O)(=O)c2ccccc2)cc1 -21.6%
O=C(Nc1ccc(Br)cc1)c1cc2nc(-c3ccccc3)cc(-c3ccccc3)n2n1 -3.87%
COc1ccc2[nH]cc(CCN=C(NC(=O)c3cccc(Cl)c3)Nc3nc(C)cc(C)n3)c2c1 -0.524%
Cc1ccc(NC(=O)c2cc(S(=O)(=O)NC3CCCCCC3)ccc2F)cc1F -14.2%
CCOc1ccc(-c2nnc(SCC(=O)NCc3ccc(Cl)cc3)o2)cc1 3.43%
Cc1ccc(N2CC(NC(=O)c3ccco3)CC2=O)cc1 (centres undefined) -1.8%
CCOc1ccc(NC(=O)CSC2=Nc3ccccc3C3=NC(CC(=O)NCc4ccccc4OC)C(=O)N23)cc1 (centres undefined) -7.21%
O=C(c1ccc2c(c1)N(Cc1ccc(F)cc1)C(=O)c1ccccc1S2(=O)=O)N1CCCCCC1 8.28%
COc1cccc(-n2c(=O)c3cc(OC)c(OC)cc3n(CC(=O)Nc3ccccc3)c2=O)c1 -8.76%
O=C(Nc1cc2c(cc1C(=O)c1ccc(Br)cc1)OCCO2)c1ccc(Cl)cc1 2.71%
Cc1ccc(S(=O)(=O)Nc2ccc3[nH]c(=O)sc3c2)cc1C -7.12%
O=C(c1ccc2c(c1)N(Cc1ccc(Cl)cc1)C(=O)c1ccccc1S2(=O)=O)N1CCC(Cc2ccccc2)CC1 -9.22%
Cc1ccc(S(=O)Cc2ccc(C(=O)NC3CCCCCC3)o2)cc1 (centres undefined) -15.6%
CNC(=O)CN(CCN(CCN(CC(=O)[O-])CC(=O)NC)CC(=O)[O-])CC(=O)[O-].O.[Gd+3] -14%
Cc1oc(-c2ccccc2F)nc1CS(=O)(=O)CC(=O)N1CCN(c2ccc(Cl)cc2)CC1 -7.48%
COc1ccc(CCn2c(=O)c3ccccc3n(CC(=O)Nc3cccc(C)c3)c2=O)cc1OC -3.48%
CC(=O)Nc1ccccc1-c1nc2ccccc2n(CC(=O)Nc2ccc(C)c(Cl)c2)c1=O -7.95%
Cc1ccc(C)c(S(=O)(=O)c2cn(C)c3cc(F)c(F)cc3c2=O)c1 -8.53%
CCc1cccc(NC(=O)c2c(N3CCCC3=O)c3cc(C)ccc3n2C)c1 -1.41%
CCn1c(COc2cccc(C)c2)nc2ccccc21 -14.9%
O=S(=O)(c1ccc(Br)cc1)c1nc(-c2cccs2)oc1SCc1ccc(F)cc1 -10.8%
CCS(=O)(=O)N1CCC2(CC1)OC(=O)C(C)=C2C(=O)NCc1cccc(Cl)c1 -13.1%
CCN(C(=O)CCS(=O)(=O)c1ccc2c(c1)oc(=O)n2C)c1ccc(OC)cc1 -17.1%
Cc1[nH]c2ccc(C(=O)Nc3ccc(F)cc3)cc2c1C -5.47%
Cc1ccccc1CN1C(=O)c2ccccc2S(=O)c2ccc(C(=O)NCc3ccco3)cc21 (centres undefined) -12.1%
Cc1ccc(NC(=O)CSc2nc3c(c(=O)[nH]2)CCC3)cc1Cl -0.408%
CC(C)CCNC(=O)CCC(=O)N1Cc2ccccc2Oc2ncccc21 -14.9%
CCn1c(SCC(=O)Nc2ccccc2)nc2c([nH]c3ccccc32)c1=O -21.4%
COc1cc2c(cc1NC(=O)COc1ccc(Br)cc1C)oc1ccccc12 -9.17%
Cc1ccc(C)c(N2CCN(C(=O)C3CCN(C(=O)c4cc5sccc5n4C)CC3)CC2)c1 -3.23%
Cc1ccccc1NS(=O)(=O)c1ccc2c(c1)NC(=O)CCS2 -17.6%
O=C(c1ccccc1)c1ccc2nc(N3CCN(c4ccccc4)CC3)c3nncn3c2c1 -9.31%
CN(C)c1cccc(C(=O)Nc2nc3ccc(S(=O)(=O)NC(C)(C)C)cc3s2)c1 -7.2%
Cc1ccc(CNC(=O)c2ccc3c(c2)NC(=O)C(CS(=O)(=O)Cc2ccc(F)cc2)N3)cc1 (centres undefined) -9.1%
COc1ccccc1C(=O)Nc1c(C(=O)N2CCN(c3ccccc3F)CC2)oc2ccccc12 -15.2%
Cc1ccc(NC(=O)c2ccc(COc3ccccc3Cl)o2)cc1 -11.8%
Cc1cc2c(cc1S(=O)(=O)NCc1ccccc1)OCC(=O)N2 -16.7%
COc1ccc(NC(=O)CCCSc2nc(-c3ccco3)cc(C(F)(F)F)n2)cc1 -13.7%
CC1=C(/C=C/C(C)=C/C=C/C(C)=C/C(=O)O)C(C)(C)CCC1 -12.3%
CCC1CCCCN1CCCNC(=O)c1cn(CC)c2ccc(S(=O)(=O)N(C)C3CCCCC3)cc2c1=O (centres undefined) -14%
CC(C)(C)c1ccc(C(=O)Nc2ccc(C(=O)OCc3cc(=O)n4ccsc4n3)cc2)cc1 7.83%
Cc1nc2ccc(S(=O)(=O)CCC(=O)Nc3ccc(C(C)C)cc3)cc2s1 -15.8%
COc1ccc(-c2cn3c(n2)sc2cc(C(=O)Nc4c(C)cccc4C)ccc23)cc1 -1.2%
Cc1ccc(CNC(=O)C2(c3cccs3)CCOCC2)cc1 3.89%
COC(=O)c1sc(-c2ccccc2)cc1NC(=O)Nc1ccccc1Cl -12.1%
O=C(/C=C/c1ccc(O)c(O)c1)O[C@@H]1C[C@@](OC(=O)/C=C/c2ccc(O)c(O)c2)(C(=O)O)C[C@@H](O)[C@@H]1O -13.1%
CCOC(=O)N1CCc2c(sc3c2c(=O)n(Cc2ccccc2)c(=O)n3CC(=O)Nc2cccc(C)c2)C1 -7.76%
Cc1cc(C)cc(Nc2nc3ccccc3nc2-n2nc(C)cc2C)c1 -6.81%
CN(C)S(=O)(=O)c1ccc(C(=O)Nc2c(C(=O)Nc3ccc(F)cc3)oc3ccccc23)cc1 -2.15%
